Test results taken from PubChem BioAssay AID1508624 (National Center for Advancing Translational Sciences (NCATS), 2021).
Screen size: about 48,000 compounds; about 120 (0.25%) were called active. Not shown: some 4% with an inconclusive outcome. Calls follow the shape of the dose curve; as a rule, active = well fitted activation curve with a large enough effect; inconclusive = small, poorly fitted or top-dose-only effect, or another doubt; inactive = no such curve, though single readings can be large or run the other way. This is one part of the list.

Experiment: Primary qHTS for Identification of Small Molecule Activators of Huntingtin-Antisense Promoter Activity; also: nearly all actives have a fitted effect of over 55% in size
Conditions: HEK293 HTT-AS promoter firefly luciferase reporter, 24 h; series mostly up to 57.5 µM; activity change, positive = activation: at the top concentration
Method in brief: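 Firefly luciferase readout (Dual-Glo, 10 min RT) after 24 h, 37 °C compound exposure (final up to 57.5 uM) of HEK293 reporter cells cultured 24 h beforehand; PTC124 at 50 uM final as control inhibitor; activity scaled vehicle 0%, zero RLU -100%.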

Activity change, positive = activation, inactive:
COc1ccc(OC)c(-c2nc(Nc3ccccc3C)sc2CC(=O)O)c1 -23.1%
COc1ccc(C2C(C(=O)Nc3ccccc3)=C(C)Nc3nc(-c4ccccc4)nn32)cc1OC (stereo unspecified) -27.1%
O=C1CCSC2(C(=O)N(Cc3ccc(F)cc3)c3ccccc32)N1c1ccccc1 (stereo unspecified) -31.5%
COc1ccc(Nc2nnc(-c3ccc(C)c(S(=O)(=O)NCc4nc5ccccc5[nH]4)c3)c3ccccc23)cc1 -36.3%
CCC(C)Sc1oc(-c2ccco2)nc1S(=O)(=O)c1ccc(Cl)cc1 (stereo unspecified) -6.39%
Cc1ccc(NC(=O)Cn2nnc(C(=O)NCCc3ccccc3)c2N)cc1 -15.7%
Clc1ccc(-c2csc(-c3nc(-c4ccc(Br)s4)cs3)n2)cc1 -6.19%
O=C(NCc1ccc(Cl)cc1)c1ccc2c(c1)NC(=O)C(CS(=O)(=O)Cc1ccc(F)cc1Cl)N2 (stereo unspecified) -27.4%
CCc1ccc(NC(=O)C2CCCN(S(=O)(=O)c3cccc4nsnc34)C2)cc1 (stereo unspecified) -23.5%
Cc1ccc(-c2nc(NC(=O)CSc3ccc4ccccc4n3)ns2)cc1 -0.233%
Cc1ccccc1NC(=O)c1nc(S(C)(=O)=O)ncc1N(Cc1ccco1)Cc1sccc1C -22.8%
Cc1ccccc1OCC(=O)Nc1ccc(C(=O)OCc2cc(=O)n3ccsc3n2)cc1 7.39%
CCN(C(=O)CCc1nc(-c2ccc(C)cc2)no1)c1cccc(Cl)c1 -10.8%
COc1cc2c(cc1OC)C(COc1ccc3c(C)cc(=O)oc3c1)N(C(=O)Cc1ccccc1)CC2 (stereo unspecified) 0%
COC(=O)c1cc2sccc2n1CC(=O)Nc1ccc(C)cc1C 8.45%
Cc1cc(C)c(Cn2c3ccccc3c3cnn(CC(=O)NCCC4=CCCCC4)c(=O)c32)c(C)c1 -3.93%
COc1cccc(CNC(=O)c2ccc3nc(-c4ccccc4)c(-c4ccccc4)nc3c2)c1OC 4.16%
CCOc1ccccc1C(=O)NC1(C(F)(F)F)C(=O)Nc2c1c(=O)[nH]c(=O)n2-c1ccccc1 (stereo unspecified) -3.75%
Cc1ccc(S(=O)(=O)c2cn(Cc3ccccc3)c3cc(N4CCCC4)c(F)cc3c2=O)cc1 -8.18%
CCc1nnc(SCc2nc(-c3cccc(Cl)c3)oc2C)c2cc3sc(C)cc3n12 2.74%
COc1cc(OC)c(NS(=O)(=O)c2cc3c(cc2C)N(C(C)=O)CCO3)cc1Cl -23.7%
COc1ccccc1NC(=O)CN(c1cc(C)cc(C)c1)S(=O)(=O)c1c(C)[nH]c(=O)[nH]c1=O -5.31%
NC(=O)c1c(NC(=O)c2cc(-c3ccc(F)cc3)on2)sc2c1CCCC2 -10.5%
Cc1cccc(NC(=O)Cn2nnc(C(=O)NCc3cccs3)c2N)c1 -13.7%
CCC(C(=O)Nc1ccc(C(C)C)cc1)n1nc(C)n2c(cc3cc(C)ccc32)c1=O (stereo unspecified) -6.12%
CN(C)c1ccc(CNC(=O)C2CCCN(S(=O)(=O)c3ccc4c(c3)CCCC(=O)N4)C2)cc1 (stereo unspecified) -40.4%
COc1ccc(Cl)cc1NC(=O)CCn1c(=O)c2cccn2c2ccccc21 -20.7%
Cc1ccc(C)c(Cn2c(=O)cc(C(F)(F)F)c3c(C)nn(C)c32)c1 -16.3%
Cc1ccccc1C(=O)NCc1nc(-c2ccc(Cl)cc2)no1 -26.2%
Cc1ccc(NC(=O)c2c(C)nc3sc(C(=O)Nc4ccc(F)cc4)c(N)c3c2-c2ccc(Cl)cc2)c(C)c1 0%
COc1cccc(NC(=O)CCc2nnc3n(Cc4ccccc4Cl)c(=O)c4ccccc4n23)c1 4.32%
CCOC(=O)C(O)c1ccccc1 (stereo unspecified) 0.678%
Cc1cccc(CN2C(=O)c3ccccc3S(=O)(=O)c3ccc(C(=O)N(C)Cc4ccccc4)cc32)c1 -31.7%
O=C1CC(c2nnc(Cc3c(F)cccc3Cl)o2)CN1c1ccccc1 (stereo unspecified) -16.3%
Cc1ccc(Nc2c(-c3ccc(N4CCOCC4)cc3)nc3cccc(C)n23)cc1 0.0036%
CCOc1ccccc1C(=O)Nc1ccc(-n2nncc2-c2ccccc2)cc1 -24.7%
CCOC(=O)c1ccc(NC2(c3ccccc3)C(=O)c3ccccc3C2=O)cc1 -1.83%
COc1ccccc1C(=O)Nc1nnc(S(=O)(=O)N2CCN(c3ccc(F)cc3)CC2)s1 -8.31%
CCOC(=O)N1CCc2c(sc(NCc3cccc(F)c3)c2C(=O)Nc2ccc(OC)cc2)C1 -26.2%
Cc1ccc(CNc2nc3ccc(Cl)cc3n3nnnc23)cc1 7.62%
COc1ccc(-n2cc(-c3ccccc3)nc2SCC(=O)Nc2ccccc2C)cc1 -16.7%
COc1cc(NC(=O)CCn2c(=O)oc3ccccc32)cc(OC)c1OC -15.2%
COC(=O)CC1Oc2ccc(F)cc2-n2cc(-c3ccc(C)cc3)nc21 (stereo unspecified) -34.9%
Cc1cc(-c2ccc(C)c(S(=O)(=O)Nc3ccccn3)c2)on1 -7.09%
COc1cc(OC)c(NS(=O)(=O)c2c(C(=O)N3CCCCCC3)c(C)n(C)c2C)cc1Cl -10.9%
COc1ccc(N(Cc2cccs2)C(=O)COc2cccc(C)c2C)cc1 -37.2%
CCN1CCN(c2ncc3c(n2)CCN(CC(C)C)C3)CC1 -13.2%
CCOc1ccc(-n2ccnc2SCC(=O)Nc2cccc3ccccc23)cc1 -14.2%
Cc1cccc(CC(=O)N2CC(=O)Nc3ccc(C)cc3C2c2ccc(F)cc2)c1 (stereo unspecified) -20.7%
COc1ccc(Br)cc1CNC(=O)c1ccc2nc(C(C)C)oc2c1 -19.6%
CCOc1ccc2oc(=O)cc(CN3CCN(Cc4ccc(C)cc4)CC3)c2c1 -14.7%
Cc1ccc(Nc2c3c(nc4nc(-c5cccs5)nn24)CCCC3)cc1F -14.3%
COc1ccc(N2C(=O)CSC23C(=O)N(Cc2cccc(C(F)(F)F)c2)c2ccccc23)cc1 (stereo unspecified) -38.8%
Cc1oc(-c2ccc(Cl)cc2)nc1CS(=O)CC(=O)NCCc1ccccc1 (stereo unspecified) -3.53%
CCN(CC)CC(=O)OCC(=O)[C@@]1(O)CC[C@H]2[C@@H]3CCC4=CC(=O)CC[C@]4(C)[C@H]3[C@@H](O)C[C@@]21C -3.58%
Cc1ccc(S(=O)(=O)c2nc(-c3cccs3)oc2SCC(=O)Nc2cc(C)cc(C)c2)cc1 -26.4%
COc1ccccc1OCC(=O)N(Cc1cccs1)C1CCS(=O)(=O)C1 (stereo unspecified) 2.29%
CCOC(=O)Cn1nc(C)c(NC(=O)COc2ccccc2)c1C -4.27%
COc1ccc(S(=O)(=O)NC(C)(C)C)cc1-c1nnc2c3ccccc3c(C)nn12 -9.63%
Cc1cccc(Cn2c(=O)n(CCCC(=O)NCc3ccccc3Cl)c(=O)c3ccccc32)c1 -49.6%
COc1ccccc1CNc1nc(-c2ccco2)nn1S(C)(=O)=O 16.2%
COCCNc1nc2c(c(=O)n(Cc3cccc(Cl)c3)c(=O)n2C)n1C -4%
Cc1ccc(NC(=O)C2CCC(CNS(=O)(=O)c3ccc4c(c3)CCCC(=O)N4)CC2)cc1F (stereo unspecified) -24.4%
COc1ccc2c(c1)c1c(c(=O)n(Cc3ccccc3)c(=O)n1Cc1ccccc1Cl)n2C -8.06%
CS(=O)(=O)N1CCc2c(-c3cnc(N)nc3)nc(N3CCOCC3)nc21 -5.55%
CCc1ccc(NC(=O)C2=C(C)C(=O)OC23CCCCC3)cc1 -17.2%
COc1ccc(OCC(=O)Nc2c(C(=O)N3CCN(c4ccccc4)CC3)oc3ccccc23)cc1 -6.07%
CCOC(=O)c1c(-c2ccc(OC)c(OC)c2)csc1NC(=O)c1ccc(C)cc1 -4.22%
CCCCN1CCCc2cc(CN(CCCN3CCOCC3)C(=O)Nc3ccc(CC)cc3)ccc21 -29.8%
O=C(O)c1cccc(NC(=O)c2cc3cc(Br)cc(Br)c3oc2=O)c1 -4.06%
O=C(NCc1ccc(F)cc1)c1cc2cccc3c2n1CCS3 -21.7%
COc1ccc(S(=O)(=O)N(CC(=O)NCCSc2ccccc2)c2ccc(C)cc2)cc1 29.8% [at 11.5 µM, percent change from vehicle, -100% = no light]
CC(=O)c1cccc(NC(=O)Cc2ccc(NC(=O)N3CCCCc4ccccc43)cc2)c1 -16.2%
COC(=O)c1ccc(NC(=O)C(=O)NCC(c2cccnc2)N2CCN(c3ccccc3)CC2)cc1 (stereo unspecified) -21.1%
COc1ccc(S(=O)(=O)NCCc2sc3nc(-c4ccc(C)cc4)nn3c2C)cc1C -24.2%
CCOC(=O)c1cc(-c2ccccc2)n(CCC(=O)NCCc2cccc(C)c2)c1C -29.7%
COc1ccccc1CNC(=O)CCCCn1c(=O)c2ccccc2n(CC(=O)Nc2c(C)cc(C)cc2C)c1=O -9.16%
CCOc1ccccc1CNC(=O)CCC(=O)N1CCSc2ccccc21 -27.6%
COc1ccccc1Cc1nc2ccccc2nc1SCC(=O)Nc1ccc2c(c1)OCO2 -3.9%
Cc1ccc(NC(=O)CN2C(=O)C(c3ccc(C(C)(C)C)cc3)=NC2(C)C)cc1 -17.4%
CC(=O)[C@]1(O)Cc2c(O)c3c(c(O)c2[C@@H](O[C@H]2C[C@H](N)[C@H](O)[C@H](C)O2)C1)C(=O)c1ccccc1C3=O -37%
CCCN(CCC)C(=O)CSc1c2c(nc3ccc(Cl)cc13)CCCC2 -36.7%
O=[N+]([O-])c1cc(-c2nc(-c3ccccc3)no2)ccc1NCc1cccnc1 -36.5%
CN1C(CSCC(F)(F)F)Nc2cc(Cl)c(S(N)(=O)=O)cc2S1(=O)=O (stereo unspecified) -14.4%
Cc1cc(C)cc(-n2c(SCC(=O)Nc3cccc(F)c3)nc3c([nH]c4ccccc43)c2=O)c1 -27.7%
Cc1ccc(C)c(NC(=O)C(Cc2ccccc2)n2cccc2)c1 (stereo unspecified) -21.7%
COc1ccc(OC)c(NC(=O)Cn2c(=O)n(Cc3ccco3)c(=O)c3cc(OC)c(OC)cc32)c1 -16.1%
Brc1ccc(Nc2c3c(nc4nncn24)CCC3)cc1 -25.6%
CC(C)C[C@H](NC(=O)CNC(=O)[C@H](Cc1ccc(O)cc1)NC(=O)[C@H](CO)NC(=O)[C@H](Cc1c[nH]c2ccccc12)NC(=O)[C@H](Cc1cnc[nH]1)NC(=O)[C@@H]1CCC(=O)N1)C(=O)N[C@@H](CCCN=C(N)N)C(=O)N1CCC[C@H]1C(=O)NCC(N)=O (stereo in doubt) -14.5%
CC1CCCCN1C(=O)CN1CCSc2ccccc21 (stereo unspecified) -6.24%
CCC(=O)Nc1ccc(CC)cc1-c1nc2ccccc2n(CC(=O)c2ccc(OC)cc2)c1=O -16.2%
